# Reference: the supplement of paper PMC4604168 (melanoma cell lines)
# Some of the results follow. Most values come without repeats; read them as rough.
# Key:
# Test in all cases: cell count relative to DMSO control; melanoma cells; higher = more viable cells
# Conditions in all cases: library dose: standard library concentration; 72 h
# [1] = test system: G361
# [2] = test system: IPC-298
# [3] = test system: IST-MEL1
# [4] = test system: LB2518-MEL
# [5] = test system: LOXIMVI
# [6] = test system: MEL-HO
# [7] = test system: MZ2-MEL
# [8] = test system: MeWo
# [9] = test system: RPMI7951
# [10] = test system: RVH-421
# [11] = test system: SkMel28
# [12] = test system: SkMel2
# [13] = test system: SkMel30
# [14] = test system: SkMel5
# [15] = test system: UACC257
# [16] = test system: UACC62
# [17] = test system: WM115
# [18] = test system: WM1716
# [19] = test system: WM1745
# [20] = test system: WM3526
# 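Further: cells treated in 1,536-well plates, then fixed and DAPI-stained, with nuclei counted from automated high-throughput microscope images.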
Compound,cell count [1] [%],cell count [2] [%],cell count [3] [%],cell count [4] [%],cell count [5] [%],cell count [6] [%],cell count [7] [%],cell count [8] [%],cell count [9] [%],cell count [10] [%],cell count [11] [%],cell count [12] [%],cell count [13] [%],cell count [14] [%],cell count [15] [%],cell count [16] [%],cell count [17] [%],cell count [18] [%],cell count [19] [%],cell count [20] [%]
"Cn1cncc1[C@@](N)(c1ccc(Cl)cc1)c1ccc2c(c1)c(-c1cccc(Cl)c1)cc(=O)n2C [tipifarnib] + O=C(O)C(=O)Nc1sc2c(c1C(=O)O)CCNC2 [TCS401] (first compound 0.05 µM, partner dose 8.33333 µM)",96.9,87.5,97,69.4,88.7,94.6,87,86.2,82.8,75.2,74.4,80.8,102,73.2,89.6,90.9,82.9,98.3,89.2,80.5
"CC1(C)NC(=O)N(c2ccc([N+](=O)[O-])c(C(F)(F)F)c2)C1=O [nilutamide] + COc1cc2c(Oc3ccc4[nH]c(C)cc4c3F)ncnc2cc1OCCCN1CCCC1 [cediranib] (first compound 5 µM, partner dose 2 µM)",92.2,104,104,93.4,67.1,93.6,105,77.7,74.9,94.5,60.6,82.3,82.7,77.6,82.2,97.9,85.1,82.3,71.6,85.5
"O=c1[nH]nc(Sc2ncc([N+](=O)[O-])s2)n1-c1ccc2c(c1)OCCO2 + C[C@]1(c2nc3c(C(N)=O)cccc3[nH]2)CCCN1 [Veliparib] (first compound 1 µM, partner dose 7 µM)",79.9,107,96.3,80.1,80.7,105,101,93.4,77.5,101,59.2,90.7,87.1,72.7,95.9,63.6,74.3,85.9,100,88.1
"COc1cc(Nc2ncc(F)c(Nc3ccc4c(n3)NC(=O)C(C)(C)O4)n2)cc(OC)c1OC [Tamatinib] + CN(NC(=O)CC(=O)NN(C)C(=S)c1ccccc1)C(=S)c1ccccc1 [STA4783] (first compound 2 µM, partner dose 0.03 µM)",22.2,39.2,11.3,10.6,23.7,62.9,75.8,10.5,40.8,44.9,34.2,56.5,112,29.3,110,30.8,22.7,67.2,17.2,93
"O=C(Nc1cccc(Cl)c1)Nc1ncc(CCNc2ncnc3ccsc23)s1 + O=C(Nc1ccccc1)c1cc([N+](=O)[O-])ccc1Cl [GW9662] (first compound 0.004 µM, partner dose 10 µM)",49.5,65.8,48.5,81.8,84,64.9,48.8,52,45.3,65.8,24.6,61.8,61.5,65.9,67.8,72.6,27,47.6,61,66
"O=c1[nH]nc(Sc2ncc([N+](=O)[O-])s2)n1-c1ccc2c(c1)OCCO2 + NCC(=O)Nc1ccc(-n2nc(C(F)(F)F)cc2-c2ccc3c(ccc4ccccc43)c2)cc1 [OSU03012] (first compound 1 µM, partner dose 5 µM)",83.4,64.1,86,110,79.5,94.4,122,102,147,98,34.9,46.7,65.2,55.3,81.5,79.5,91.2,93,97.6,53.6
"O=c1[nH]nc(Sc2ncc([N+](=O)[O-])s2)n1-c1ccc2c(c1)OCCO2 + COCC[n+]1c2c(n(Cc3cnccn3)c1C)C(=O)c1ccccc1C2=O [YM155] (first compound 1 µM, partner dose 0.002 µM)",112,74.9,58.1,69,77.1,109,41.9,41.6,42.6,105,58.4,73.8,88.1,44.3,23.8,56.6,71.7,58.1,118,48.7
"C[C@@H]1CCN(C(=O)CC#N)C[C@@H]1N(C)c1ncnc2[nH]ccc12 + Oc1cc(-c2nc(-c3ccccc3)[nH]c2-c2ccncc2)ccc1Cl [L779450] (first compound 5 µM, partner dose 1 µM)",58.1,89.2,83.8,98,87.5,85.5,102,69.2,83.8,76.4,39.8,33.4,85.9,59.5,95.5,58.2,46.5,82,50.7,43
"O=C(O)c1ccc(-c2c[nH]c3ncc(-c4ccccc4)cc23)cc1C1CCCC1 + Cn1cc(/C=C2\C(=O)Nc3cccnc32)c2ccccc21 [GW441756] (first compound 0.8 µM, partner dose 2 µM)",71.9,85.1,80.2,156,101,77,85.1,72.7,85.5,91.8,72.5,84.8,80.9,84.9,74.3,91.7,85,81.2,78.9,86.3
"CC1(C)NC(=O)N(c2ccc([N+](=O)[O-])c(C(F)(F)F)c2)C1=O [nilutamide] + Cc1cc([N+](=O)[O-])ccc1NS(=O)(=O)c1cc(Cl)ccc1Cl [FH535] (first compound 5 µM, partner dose 5 µM)",49.7,47.9,56.1,83.4,68.6,51.4,67.9,79.3,91.9,70.3,56,67.4,98,64.7,68,110,79,72.9,67,62.8
"CC1(C)NC(=O)N(c2ccc([N+](=O)[O-])c(C(F)(F)F)c2)C1=O [nilutamide] + O=C(O)c1ccc(-c2c[nH]c3ncc(-c4ccccc4)cc23)cc1C1CCCC1 [GSK650394] (first compound 5 µM, partner dose 0.8 µM)",59.3,82.2,80.6,95.1,68.5,66,94.9,84.1,67.2,74.3,59,61,80.6,76.1,72.3,86.6,96.1,74.6,83,69.1
"O=C(Nc1cccc(Cl)c1)Nc1ncc(CCNc2ncnc3ccsc23)s1 + Cn1cncc1[C@@](N)(c1ccc(Cl)cc1)c1ccc2c(c1)c(-c1cccc(Cl)c1)cc(=O)n2C [tipifarnib] (first compound 0.004 µM, partner dose 0.05 µM)",60.5,74.8,41.8,73.7,64.7,79.3,62.1,49.9,48.4,78.4,52.7,68,94,65.2,76.6,76.2,36.9,45.6,68.6,71.4
"O=C(Nc1cccc(Cl)c1)Nc1ncc(CCNc2ncnc3ccsc23)s1 + Oc1cc(-c2nc(-c3ccccc3)[nH]c2-c2ccncc2)ccc1Cl [L779450] (first compound 0.004 µM, partner dose 1 µM)",54.9,73.7,67.9,72,113,66.1,88.6,70.9,46.5,68.8,36.9,29.3,73.7,66,68.7,61,39.4,55,51.7,47.9
"O=c1[nH]nc(Sc2ncc([N+](=O)[O-])s2)n1-c1ccc2c(c1)OCCO2 + CNC(=O)c1cc(Oc2ccc(NC(=O)Nc3ccc(Cl)c(C(F)(F)F)c3)cc2)ccn1 [sorafenib] (first compound 1 µM, partner dose 2 µM)",91,72.8,121,75.9,158,97.2,104,83.3,84.6,106,127,86.9,103,89.2,95,112,120,116,73.4,82.4
"COc1cc(Nc2ncc(F)c(Nc3ccc4c(n3)NC(=O)C(C)(C)O4)n2)cc(OC)c1OC [Tamatinib] + O=C(Nc1cccc(Cl)c1)Nc1ncc(CCNc2ncnc3ccsc23)s1 [SNS314] (first compound 2 µM, partner dose 0.004 µM)",51.7,55.4,451,66.2,35.8,63,56,48.8,23.7,60.8,31.5,54.2,90.2,52.5,49.5,54.1,38.6,39.5,21.9,40.6
"Cn1cncc1[C@@](N)(c1ccc(Cl)cc1)c1ccc2c(c1)c(-c1cccc(Cl)c1)cc(=O)n2C [tipifarnib] + CN(NC(=O)CC(=O)NN(C)C(=S)c1ccccc1)C(=S)c1ccccc1 [STA4783] (first compound 0.05 µM, partner dose 0.03 µM)",31.4,67.7,34.4,18.9,55.2,82.5,88.6,10.5,54.4,55.1,36.7,54,62.9,50.8,83,41.8,15.2,49,17.2,69.8
"O=c1[nH]nc(Sc2ncc([N+](=O)[O-])s2)n1-c1ccc2c(c1)OCCO2 + C[C@@H](Oc1cc(-c2cnn(C3CCNCC3)c2)cnc1N)c1c(Cl)ccc(F)c1Cl [Crizotinib] (first compound 1 µM, partner dose 1 µM)",91.3,108,88.7,77.2,130,122,102,88.6,98,80.5,73.9,85.4,97.8,71.9,90.3,82.6,96,86.6,86.5,89.1
